In PubChem BioAssay AID504832 (National Center for Advancing Translational Sciences (NCATS), 2011):
About 18,000 (5.8%) of roughly 310,000 compounds were called active. This list was built around the results that the source calls inconclusive (neither active nor inactive); the mix of calls is not that of the screen. Calls follow the shape of the dose curve; as a rule, active = well fitted inhibition curve with a large enough effect; inconclusive = small, poorly fitted or top-dose-only effect, or another doubt; inactive = no such curve, though single readings can be large or run the other way. No potency is given beside an inconclusive call; the fits are too rough.

Test: Primary qHTS for delayed death inhibitors of the malarial parasite plastid, 48 hour incubation
Settings: P. falciparum luciferase growth in erythrocytes; series mostly up to 28.7 µM; activity change, negative = inhibition: at the top concentration
Procedure, shortened: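 Cell-based growth assay: transgenic P. falciparum expressing firefly luciferase, cultured in red cells within RPMI 1640 containing 0.5% w/v Albumax, 24 mM bicarbonate and gentamycin. A drop in luciferase activity indicates inhibition.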
% is scaled to controls: 0 for no effect and ±100 for the full control effect; potency is read from the fitted curve at half-maximal effect; tags tell the direction and shape of the fitted curve.

Row | Structure (SMILES) | Potency | activity change, negative = inhibition
1 | Cc1cccc(N2CCN(CCCNC(=O)C3CCCN(c4ncnc5c4nc4n5CCCCC4)C3)CC2C)c1 (configuration not stated) | inconclusive [inhibitor, partial curve, poor fit] | 
2 | Cc1cccc(OCC(=O)OCC(=O)N2CCCc3ccccc32)c1C | inconclusive [inhibitor, single point] | 
3 | COc1cc(CCC(=O)OCC(=O)Nc2ccc(Br)cc2F)cc(OC)c1OC | inconclusive [inhibitor, partial curve, poor fit] | 
4 | Cn1nc(C(F)(F)F)c2cc(C(=O)Nc3ccc(F)c(Cl)c3)sc21 | active: 3.29 µM | 
5 | CCCCCOP(=O)(c1ccccc1)c1ccccc1 | active: 11.7 µM | 
6 | O=C(NCCN1CCOCC1)c1cccc(S(=O)(=O)Nc2ccc(F)cc2)c1 | inconclusive [inhibitor, single point] | 
7 | CC1(C)Cc2c(cnn2-c2ccccc2)C(=O)/C1=N\NC(=O)c1ccccc1O | inconclusive [inhibitor, partial curve, poor fit] | 
8 | CCOc1ccc(CCNC(=O)C2CCN(c3nn4c(=O)cc(C)nc4s3)CC2)cc1OCC | inconclusive [inhibitor, partial curve] | 
9 | COc1cc(OC)c(-c2nnc3n(CCc4ccccc4)c(=O)c4ccccc4n23)cc1OC | inconclusive [inhibitor, single point] | 
10 | CC(C)Oc1ccc(CN2CCC(n3nccc3NC(=O)CCc3ccccc3)CC2)cc1 | inconclusive [inhibitor, partial curve] | 
11 | CNC(=O)c1ccc(OCc2ccccc2)c(OC)c1 |  | inactive: -4.3%
12 | CCO[C@H]1OC(C(=O)O)=C[C@@H](c2ccc(C(F)(F)F)cc2)[C@@H]1CCCO |  | inactive: 18.3%
13 | Cc1ccc(Cl)cc1NC(=O)C1CCCN(S(=O)(=O)c2c(C)noc2C)C1 (configuration not stated) | inconclusive [inhibitor, single point] | 
14 | CCC1CCCCN1CCCNC(=O)CN1C(=O)c2cccnc2Oc2ccc(Cl)cc21 (configuration not stated) | inconclusive [inhibitor, single point] | 
15 | CN1CCCN(Cc2ccccc2Br)CC1 |  | inactive: 15.3%
16 | Cc1c(-c2ccccc2)cn2c1-c1ccc(C)n1CC2 | inconclusive [inhibitor, partial curve] | 
17 | Cn1c(C(=O)N2CCCC(C(=O)NCc3ccccc3)C2)cc2sccc21 (configuration not stated) | inconclusive [inhibitor, partial curve, poor fit] | 
18 | CCC(=O)N1c2ccc(S(=O)(=O)N3CCN(c4ccc([N+](=O)[O-])cc4)CC3)cc2CC1C (configuration not stated) | inconclusive [inhibitor, partial curve, poor fit] | 
19 | CCN(CC(=O)Nc1cc(S(=O)(=O)N2CCOCC2)ccc1C)Cc1ccccc1 | inconclusive [inhibitor, single point] | 
20 | CCN(CC)c1ccc(NC(=O)/C=C/c2cc(Br)ccc2OC)cc1 | inconclusive [inhibitor, partial curve] | 
21 | Cc1ccc(C)c2[nH]c(=O)c(CN(Cc3ccco3)S(=O)(=O)c3ccc4c(c3)OCCO4)cc12 | inconclusive [inhibitor, single point] | 
22 | CC(=O)N1c2c(cc(Br)cc2S(=O)(=O)N2CCN(C(=O)c3ccco3)CC2)CC1C (configuration not stated) | active: 10.4 µM | 
23 | COc1ccc(CCNC(=O)COc2nsnc2N2CCOCC2)cc1OC | active: 1.85 µM | 

Row | Structure (SMILES) | Potency | activity change, negative = inhibition
24 | CSc1ccc(CCNC(=O)C2CCCN(c3ncnc4c3nc3n4CCCCC3)C2)cc1 (configuration not stated) | inconclusive [inhibitor, partial curve] | 
25 | CCc1ccc(N(C(=O)CCC(=O)Nc2cc(C)on2)C(C(=O)NC(C)(C)C)c2ccc(OC)cc2)cc1 (configuration not stated) | active: 2.08 µM | 
26 | CN(c1cccc(NC(=O)c2ccc(CN3CCc4ccccc4C3)cc2)c1)S(C)(=O)=O | inconclusive [inhibitor, partial curve, poor fit] | 
27 | CC(C)(C)N(Cc1ccccc1)C(=O)COC(=O)c1ccc(Br)o1 | inconclusive [inhibitor, partial curve, poor fit] | 
28 | CC(=O)N=c1sccn1CC(O)c1ccc(Br)cc1 (configuration not stated) | inconclusive [inhibitor, single point] | 
29 | COC(=O)c1nn(-c2ccc(F)cc2)ccc1=O | inconclusive [inhibitor, full curve, poor fit] | 
30 | CCC(=O)N1CCc2cc(S(=O)(=O)NCCC(=O)N3CCc4ccccc4C3)ccc21 | inconclusive [inhibitor, partial curve, poor fit] | 
31 | Cc1ccc(C)c(NC(=O)c2cc(S(=O)(=O)N3CCCCC3)ccc2N2CCOCC2)c1 | inconclusive [inhibitor, single point] | 
32 | C=C(C)COc1ccc(-c2[nH]ncc2-c2ccccc2OC)c(O)c1 | active: 3.29 µM | 
33 | CCN(CC)S(=O)(=O)c1ccc(C(=O)OCC(=O)Nc2ccc(-c3nc4ccc(C)cc4s3)cc2)cc1 |  | inactive: 227%
34 | O=c1[nH]cnc2c1C(c1ccccc1[N+](=O)[O-])c1c(nc[nH]c1=O)O2 |  | inactive: 5.58%
35 | CCCCC(CC)CNC(=O)C(Cc1ccccc1)NS(=O)(=O)c1ccc2c(c1)CCC(=O)N2 (configuration not stated) | inconclusive [inhibitor, partial curve] | 
36 | Clc1ccc(OCCOCCN2CCc3ccccc3C2)c(Cl)c1 | inconclusive [inhibitor, single point] | 
37 | CC(C)CNc1nc(N)c([N+](=O)[O-])c(NC2CCCCC2)n1 | inconclusive [inhibitor, full curve] | 
38 | CN1OC[C@@H]2COc3ccc4ccccc4c3[C@@H]21 | active: 13.1 µM | 
39 | Cc1c(C(=O)N(Cc2ccc(N(C)C)cc2)C2CCS(=O)(=O)C2)oc2ccccc12 (configuration not stated) | inconclusive [inhibitor, single point] | 
40 | Cc1ccc(O)c(N=Nc2nccs2)c1 | inconclusive [inhibitor, single point] | 
41 | CC[C@@]12C(=O)N(c3cccc(C)c3)C(=O)N1[C@H](c1ccc(OC)cc1)[C@@H]1C(=O)N(C(C)(C)C)C(=O)[C@@H]12 | inconclusive [inhibitor, single point] | 
42 | COc1ccccc1-c1cc(C(=O)N2CCCC2)no1 |  | inactive: 132%
43 | COc1ccc(C2C3=C(CC(C)(C)CC3=O)Nc3c2c(=O)[nH]c(=O)n3Cc2ccccc2)cc1OC (configuration not stated) | inconclusive [inhibitor, partial curve] | 
44 | O=S(=O)(Nc1ccc(-c2nc3cccnc3s2)cc1)c1cc(F)ccc1F |  | inactive: 40.6%
45 | Cc1nn(-c2ccccc2)nc1C(=O)Oc1cc(C(F)(F)F)nn1-c1ccccc1 | active: 0.37 µM | 
46 | Cc1ccc(CNC(=O)C2CCCN(S(=O)(=O)c3ccc(-n4cnnn4)cc3)C2)cc1 (configuration not stated) |  | inactive: 13.4%

Row | Structure (SMILES) | Potency | activity change, negative = inhibition
47 | NCCCn1c(C(=O)c2cc(Cl)c(N)c(Cl)c2)c2ccc([N+](=O)[O-])cc2[n+]1[O-] | active: 11.7 µM | 
48 | COc1cc([N+](=O)[O-])cc(/C=N/NC(=O)c2ccc(C)nc2)c1O |  | inactive: 32.6%
49 | O=C(CSc1c(F)c(F)cc(F)c1F)Nc1ccc(C2SCCS2)cc1 |  | inactive: -3.9%
50 | Clc1ccc(CNc2ccccc2NCc2ccc(Cl)nc2)cn1 | inconclusive [inhibitor, single point] | 
51 | CCOc1cccc(=O)c2c(C)n(C)c(C)c12 | inconclusive [inhibitor, single point] | 
52 | CC(C)(C)c1ccc(S(=O)(=O)N(CCCN2CCOCC2)Cc2cccs2)cc1 | inconclusive [inhibitor, single point] | 
53 | Cn1c(N)c(C(=O)CSc2nc3ccccc3n2-c2ccccc2)c(=O)n(C)c1=O | inconclusive [inhibitor, partial curve, poor fit] | 
54 | O=C1/C(=C/c2ccccc2)Nc2ccccc21 | inconclusive [inhibitor, full curve] | 
55 | COc1ccc(C(CNC(=O)COc2cccc(C)c2)N2CCCC2)cc1 (configuration not stated) | inconclusive [inhibitor, partial curve] | 
56 | CCOC(=O)C1(Cc2ccccc2)CCN(Cc2cc(=O)c3ccccc3[nH]2)CC1 | inconclusive [inhibitor, partial curve] | 
57 | O=C(CSc1nc2ccccc2o1)Nc1nc2ccc(Br)cc2s1 | inconclusive [inhibitor, single point] | 
58 | Cc1cc(=O)oc2cc(OCC(=O)NCc3ccccn3)ccc12 | inconclusive [inhibitor, partial curve, poor fit] | 
59 | O=C(Cn1cc(C(F)(F)F)cc(Cl)c1=O)NCC1COc2ccccc2O1 (configuration not stated) | inconclusive [inhibitor, single point] | 
60 | Cc1c(CCC(=O)NCCCn2ccnc2)c(=O)oc2c(C)c3oc4c(c3cc12)CCCC4 | inconclusive [inhibitor, partial curve, poor fit] | 
61 | Cc1ccc(-n2nc3c(c2NC(=O)c2cccs2)CSC3)cc1 | inconclusive [inhibitor, single point] | 
62 | CCc1c(C)sc(NC(=O)c2cccs2)c1C#N |  | inactive: 170%
63 | CC(C)(C)Nc1nc(Cl)nc(NC2CCCCC2)n1 |  | inactive: -18.7%
64 | CN(C)c1ccc(N=Cc2nc(-c3ccccc3)oc2OC(=O)c2ccccc2)cc1 |  | inactive: 166%
65 | O=C(Cn1cnc([N+](=O)[O-])n1)N/N=C/c1cccc2ccccc12 |  | inactive: 39.8%
66 | CCN=C1SC(C(=O)Nc2cccc(C(=O)O)c2)CC(=O)N1CC (configuration not stated) |  | inactive: -2.64%
67 | O=c1ccc(-c2ccc(S(=O)(=O)Nc3cccc(F)c3)o2)n[nH]1 | inconclusive [inhibitor, full curve] | 
